This is an account of results in article PMC3538594 (PLoS ONE, 2013).

The target of test [1] is T. thermophilus complex II (Thermus thermophilus, UniProt Q5SIB8+Q5SIB9+Q5SIC0+Q5SIC1). Nature of the test: DCPIP/1,4-NQ activity assay, statements across enzyme forms. It is filed as biochemical. The source says:
Kinetic experiments with NQNO support this interpretation.

For another test, the target named is recombinant complex II (Thermus thermophilus, UniProt Q5SIC0). Nature of the test: EPR signal of the [2Fe-2S] cluster (axial/rhombic transition). Set-up: species or system T. thermophilus. The note with it: in words. As for the experimental part:
EPR spectra were recorded on a Bruker ElexSys X-band spectrometer fitted with an Oxford Instrument He-cryostat and temperature control system. Buffers used were either 50 mM MOPS at pH 7 or a mixture of 100 mM MOPS and 100 mM piperazine for the pH experiments. […] Additions of reducing agents were performed at room temperature followed by vortexing and freezing of the sample in liquid nitrogen within 5 min after addition.
Figure 5 Influence of redox mediators, buffer and inhibitors on EPR spectra of the recombinant complex II. […] The spectrum labeled ‘asc’ was obtained on a sample reduced by 5 mM ascorbate, ‘malate’ by addition of 20 mM malate, ‘dith’ by addition of 1 mM dithionite. Vertical lines indicate the position of the gx-signal. Spectra were recorded at a temperature of 50 K, microwave power of 64 mW and a modulation amplitude of 1 mT.
Protein concentration was 10 µM. Spectra were recorded at a temperature of 50 K, microwave power of 64 mW and a modulation amplitude of 1 mT.

For orientation: Ki means the equilibrium dissociation constant of an inhibitor or competing ligand from its target. As to `CCCCCCCCCc1cc(O)c2ccccc2[n+]1[O-]` [NQNO], the inhibition at 50 µM in test [1] (0.05 mM NQNO, 30°C, read-out: DCPIP/1,4-NQ activity inhibited to) is 40%. The Ki in test [1] ([…], read-out: Ki, non-competitive mode) is 70 to 88 µM.

Consider `O=C(O)CC[N+](=O)[O-]` [3-NP, 3-Nitropropionic acid], for which the “influence on the rhombicity of the [2Fe-2S] EPR signal” value at recombinant complex II is listed as “prevented the transition to the rhombic signal when succinate was added”.
